The supplement of paper PMC8728848
The list shows a part of the results.

Legend:
Assay in all cases: glycan array binding signal (z-score within array); higher = stronger binding
Details in all cases: glycan notation: IUPAC condensed, linker removed
[1] = molecular target: Neu5Ac(a2-3)Gal(b1-3)GlcNAc(b1-2)Man
Summary of the method: (§1)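 The binding signal is a Z-score computed within each array and averaged over linkers. Arrays of the same protein sequence at different concentrations or buffers were also averaged together. Data originate from 3228 arrays in the Consortium for Functional Glycomics database, kept only where the protein sequence was available.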

[2] = molecular target: Neu5Ac(a2-3)Gal(b1-3)GlcNAc(b1-2)Man(a1-3)[GlcNAc(b1-4)][Neu5Ac(a2-3)Gal(b1-3)GlcNAc(b1-2)Man(a1-6)]Man(b1-4)GlcNAc(b1-4)GlcNAc
Summary of the method: as §1

[3] = molecular target: Neu5Ac(a2-3)Gal(b1-3)GlcNAc(b1-2)Man(a1-3)[Neu5Ac(a2-3)Gal(b1-3)GlcNAc(b1-2)Man(a1-6)]Man(b1-4)GlcNAc(b1-4)GlcNAc
Summary of the method: as §1

[4] = molecular target: Neu5Ac(a2-3)Gal(b1-3)GlcNAc(b1-3)Gal(b1-3)GlcNAc
Summary of the method: as §1

[5] = molecular target: Neu5Ac(a2-3)Gal(b1-3)GlcNAc(b1-3)Gal(b1-4)GlcNAc
Summary of the method: as §1

[6] = molecular target: Neu5Ac(a2-3)Gal(b1-3)GlcNAc(b1-3)GalNAc
Summary of the method: as §1

[7] = molecular target: Neu5Ac(a2-3)Gal(b1-3)GlcNAc(b1-4)Gal(b1-4)Glc
Summary of the method: as §1

[8] = molecular target: Neu5Ac(a2-3)Gal(b1-3)GlcNAc(b1-6)GalNAc
Summary of the method: as §1

[9] = molecular target: Neu5Ac(a2-3)Gal(b1-3)GlcNAc6S
Summary of the method: as §1

[10] = molecular target: Neu5Ac(a2-3)Gal(b1-3)[Fuc(a1-4)]GlcNAc
Summary of the method: as §1

[11] = molecular target: Neu5Ac(a2-3)Gal(b1-3)[Fuc(a1-4)]GlcNAc(b1-3)Gal(b1-3)[Fuc(a1-4)]GlcNAc
Summary of the method: as §1

[12] = molecular target: Neu5Ac(a2-3)Gal(b1-3)[Fuc(a1-4)]GlcNAc(b1-3)Gal(b1-4)[Fuc(a1-3)]GlcNAc
Summary of the method: as §1

[13] = molecular target: Neu5Ac(a2-3)Gal(b1-3)[GlcNAc(b1-6)]GalNAc
Summary of the method: as §1

[14] = molecular target: Neu5Ac(a2-3)Gal(b1-3)[Neu5Ac(a2-6)]GalNAc
Summary of the method: as §1

[15] = molecular target: Neu5Ac(a2-3)Gal(b1-3)[Neu5Ac(a2-6)]GlcNAc(b1-3)[Fuc(a1-3)[Gal(b1-4)]GlcNAc(b1-6)]Gal(b1-4)Glc
Summary of the method: as §1

[16] = molecular target: Neu5Ac(a2-3)Gal(b1-3)]Neu5Ac(a2-3)Gal(b1-4)]GlcNAc
Summary of the method: as §1

Neu5Ac(a2-3)Gal(b1-4)Glc = molecular target: Neu5Ac(a2-3)Gal(b1-4)Glc
Summary of the method: as §1

[17] = molecular target: Neu5Ac(a2-3)Gal(b1-4)GlcNAc
Summary of the method: as §1

[18] = molecular target: Neu5Ac(a2-3)Gal(b1-4)GlcNAc(b1-2)Man
Summary of the method: as §1

[19] = molecular target: Neu5Ac(a2-3)Gal(b1-4)GlcNAc(b1-2)Man(a1-3)[GlcNAc(b1-4)][Neu5Ac(a2-3)Gal(b1-4)GlcNAc(b1-2)Man(a1-6)]Man(b1-4)GlcNAc(b1-4)GlcNAc
Summary of the method: as §1

[20] = molecular target: Neu5Ac(a2-3)Gal(b1-4)GlcNAc(b1-2)Man(a1-3)[Neu5Ac(a2-3)Gal(b1-4)GlcNAc(b1-2)Man(a1-6)]Man(b1-4)GlcNAc(b1-4)GlcNAc
Summary of the method: as §1

[21] = molecular target: Neu5Ac(a2-3)Gal(b1-4)GlcNAc(b1-2)Man(a1-3)[Neu5Ac(a2-3)Gal(b1-4)GlcNAc(b1-2)Man(a1-6)]Man(b1-4)GlcNAc(b1-4)[Fuc(a1-6)]GlcNAc
Summary of the method: as §1

[22] = molecular target: Neu5Ac(a2-3)Gal(b1-4)GlcNAc(b1-2)Man(a1-3)[Neu5Ac(a2-6)Gal(b1-4)GlcNAc(b1-2)Man(a1-6)]Man(b1-4)GlcNAc(b1-4)GlcNAc
Summary of the method: as §1

[23] = molecular target: Neu5Ac(a2-3)Gal(b1-4)GlcNAc(b1-2)[Neu5Ac(a2-3)Gal(b1-4)GlcNAc(b1-4)]Man(a1-3)[GlcNAc(b1-4)][Neu5Ac(a2-3)Gal(b1-4)GlcNAc(b1-2)[Neu5Ac(a2-3)Gal(b1-4)GlcNAc(b1-6)]Man(a1-6)]Man(b1-4)GlcNAc(b1-4)GlcNAc
Summary of the method: as §1

[24] = molecular target: Neu5Ac(a2-3)Gal(b1-4)GlcNAc(b1-2)[Neu5Ac(a2-3)Gal(b1-4)GlcNAc(b1-4)]Man(a1-3)[GlcNAc(b1-4)][Neu5Ac(a2-3)Gal(b1-4)GlcNAc(b1-4)Man(a1-6)]Man(b1-4)GlcNAc(b1-4)GlcNAc
Summary of the method: as §1

[25] = molecular target: Neu5Ac(a2-3)Gal(b1-4)GlcNAc(b1-2)[Neu5Ac(a2-3)Gal(b1-4)GlcNAc(b1-6)]Man(a1-6)[Neu5Ac(a2-3)Gal(b1-4)GlcNAc(b1-2)Man(a1-3)]Man(b1-4)GlcNAc(b1-4)GlcNAc
Summary of the method: as §1

[26] = molecular target: Neu5Ac(a2-3)Gal(b1-4)GlcNAc(b1-2)[Neu5Ac(a2-3)Gal(b1-4)GlcNAc(b1-6)]Man(a1-6)[Neu5Ac(a2-3)Gal(b1-4)GlcNAc(b1-2)Man(a1-3)][GlcNAc(b1-4)]Man(b1-4)GlcNAc(b1-4)GlcNAc
Summary of the method: as §1

[27] = molecular target: Neu5Ac(a2-3)Gal(b1-4)GlcNAc(b1-3)Gal
Summary of the method: as §1

[28] = molecular target: Neu5Ac(a2-3)Gal(b1-4)GlcNAc(b1-3)Gal(b1-3)GlcNAc
Summary of the method: as §1

[29] = molecular target: Neu5Ac(a2-3)Gal(b1-4)GlcNAc(b1-3)Gal(b1-4)GlcNAc
Summary of the method: as §1

[30] = molecular target: Neu5Ac(a2-3)Gal(b1-4)GlcNAc(b1-3)Gal(b1-4)GlcNAc(b1-2)Man(a1-3)[Neu5Ac(a2-3)Gal(b1-4)GlcNAc(b1-3)Gal(b1-4)GlcNAc(b1-2)Man(a1-6)]Man(b1-4)GlcNAc(b1-4)GlcNAc
Summary of the method: as §1

[31] = molecular target: Neu5Ac(a2-3)Gal(b1-4)GlcNAc(b1-3)Gal(b1-4)GlcNAc(b1-3)Gal(b1-4)GlcNAc
Summary of the method: as §1

[32] = molecular target: Neu5Ac(a2-3)Gal(b1-4)GlcNAc(b1-3)Gal(b1-4)GlcNAc(b1-3)Gal(b1-4)GlcNAc(b1-2)Man(a1-3)[Neu5Ac(a2-3)Gal(b1-4)GlcNAc(b1-3)Gal(b1-4)GlcNAc(b1-3)Gal(b1-4)GlcNAc(b1-2)Man(a1-6)]GalNAc
Summary of the method: as §1

[33] = molecular target: Neu5Ac(a2-3)Gal(b1-4)GlcNAc(b1-3)Gal(b1-4)GlcNAc(b1-3)GalNAc
Summary of the method: as §1

[34] = molecular target: Neu5Ac(a2-3)Gal(b1-4)GlcNAc(b1-3)Gal(b1-4)GlcNAc(b1-3)[Neu5Ac(a2-3)Gal(b1-4)GlcNAc(b1-3)Gal(b1-4)GlcNAc(b1-6)]GalNAc
Summary of the method: as §1

[35] = molecular target: Neu5Ac(a2-3)Gal(b1-4)GlcNAc(b1-3)Gal(b1-4)GlcNAc(b1-6)[Gal(b1-3)]GalNAc
Summary of the method: as §1

[36] = molecular target: Neu5Ac(a2-3)Gal(b1-4)GlcNAc(b1-3)Gal(b1-4)[Fuc(a1-3)]GlcNAc
Summary of the method: as §1

[37] = molecular target: Neu5Ac(a2-3)Gal(b1-4)GlcNAc(b1-3)GalNAc
Summary of the method: as §1

B1: AT1G73650(15) (Arabidopsis thaliana), F4HRY1 (protein)
chain: MGTVLDSHFLALTAIVTVIYQFIFFVITALFKFDQVTDFAGSTNFVILAVLTLVLKASWHFRQIVLTLLVVVWGLRLGIFLLMETRILQWGEDRRFDEQRGNIVRLIIFWTLQAVWVWTVSLPLTLVNASDGGGSLKPADVIGWTMETWVFGFLIEAAADQQKLSFKNSPENRGKWCDVGVWKYSRHPNYFGEMETLLWWGIFVAASPVLEGAEYLVIFGPLFLTLLLLFVSGIPLLEASADKKHGNSGAYRSYKKTTSPLILFPRGVYGNLPGWFKTVFLFEFPFYSRNLPQEGRLQNSKEKEVKDD
- glycan array binding signal (z-score) [1]: 1.4
- glycan array binding signal (z-score) [2]: -0.619
- glycan array binding signal (z-score) [3]: -0.37
- glycan array binding signal (z-score) [4]: -0.096
- glycan array binding signal (z-score) [5]: -0.32
- glycan array binding signal (z-score) [6]: -0.661
- glycan array binding signal (z-score) [7]: -0.009
- glycan array binding signal (z-score) [8]: 3.42
- glycan array binding signal (z-score) [9]: -0.38
- glycan array binding signal (z-score) [10]: -0.496
- glycan array binding signal (z-score) [11]: -0.36
- glycan array binding signal (z-score) [12]: -0.002
- glycan array binding signal (z-score) [13]: -0.402
- glycan array binding signal (z-score) [14]: -0.318
- glycan array binding signal (z-score) [15]: -0.293
- glycan array binding signal (z-score) [16]: 1.11
- glycan array binding signal (z-score) (Neu5Ac(a2-3)Gal(b1-4)Glc): -0.34
- glycan array binding signal (z-score) [17]: -0.423
- glycan array binding signal (z-score) [18]: -0.321
- glycan array binding signal (z-score) [19]: -0.49
- glycan array binding signal (z-score) [20]: -0.544
- glycan array binding signal (z-score) [21]: -0.367
- glycan array binding signal (z-score) [22]: -0.511
- glycan array binding signal (z-score) [23]: -0.555
- glycan array binding signal (z-score) [24]: -0.619
- glycan array binding signal (z-score) [25]: 0.309
- glycan array binding signal (z-score) [26]: -0.226
- glycan array binding signal (z-score) [27]: -0.61
- glycan array binding signal (z-score) [28]: -0.316
- glycan array binding signal (z-score) [29]: -0.62
- glycan array binding signal (z-score) [30]: -0.673
- glycan array binding signal (z-score) [31]: -0.604
- glycan array binding signal (z-score) [32]: -0.387
- glycan array binding signal (z-score) [33]: 0.878
- glycan array binding signal (z-score) [34]: 0.537
- glycan array binding signal (z-score) [35]: -0.272
- glycan array binding signal (z-score) [36]: 1.23
- glycan array binding signal (z-score) [37]: -0.553
